T1: PRYSPRY domain of human TRIM21 with N-terminal 6xHis tag (human)
T1 construct: Expressed in E. coli; also called hTRIM21; human TRIM21.PRYSPRY
T1 chain: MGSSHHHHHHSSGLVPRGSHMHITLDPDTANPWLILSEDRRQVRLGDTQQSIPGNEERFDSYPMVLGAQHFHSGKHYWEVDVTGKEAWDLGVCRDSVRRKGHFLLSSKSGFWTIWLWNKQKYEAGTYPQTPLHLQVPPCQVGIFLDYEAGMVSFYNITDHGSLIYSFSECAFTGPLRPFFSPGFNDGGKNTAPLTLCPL

T2: PRYSPRY domain of mouse TRIM21 with N-terminal 6xHis tag (mouse)
T2 construct: Expressed in E. coli; also called mTRIM21; mouse TRIM21.PRYSPRY
T2 chain: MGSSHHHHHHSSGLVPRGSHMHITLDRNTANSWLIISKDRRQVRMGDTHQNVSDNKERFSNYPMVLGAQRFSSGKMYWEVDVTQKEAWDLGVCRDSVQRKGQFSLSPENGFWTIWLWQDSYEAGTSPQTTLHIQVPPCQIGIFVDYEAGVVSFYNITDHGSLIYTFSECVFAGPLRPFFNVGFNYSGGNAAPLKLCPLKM

B1: MRAH-G1d/MRAL-KT0 Q311F (antibody, human IgG1, kappa)
heavy: QVQLQESGPGLVRPSQTLSLTCTVSGYSITSDHAWSWVRQPPGRGLEWIGYISYSGITTYNPSLKSRVTMLRDTSKNQFSLRLSSVTAADTAVYYCARSLARTTAMDYWGQGSLVTVSS[human IgG1 constant region with Q311F (EU numbers) omitted here]
light: DIQMTQSPSSLSASVGDRVTITCRASQDISSYLNWYQQKPGKAPKLLIYYTSRLHSGVPSRFSGSGSGTDFTFTISSLQPEDIATYYCQQGNTLPYTFGQGTKVEIKRTVAAPSVFIFPPSDEQLKSGTASVVCLLNNFYPREAKVQWKVDNALQSGNSQESVTEQDSKDSTYSLSSTLTLSKADYEKHKVYACEVTHQGLSSPVTKSFNRGEC
notes: copies: 2 + 2
B2: MRAH-G1d/MRAL-KT0 Q311G (antibody, human IgG1, kappa)
heavy: QVQLQESGPGLVRPSQTLSLTCTVSGYSITSDHAWSWVRQPPGRGLEWIGYISYSGITTYNPSLKSRVTMLRDTSKNQFSLRLSSVTAADTAVYYCARSLARTTAMDYWGQGSLVTVSS[human IgG1 constant region with Q311G (EU numbers) omitted here]
light: B1 light
notes: copies: 2 + 2
B3: MRAH-G1d/MRAL-KT0 N315S (antibody, human IgG1, kappa)
heavy: QVQLQESGPGLVRPSQTLSLTCTVSGYSITSDHAWSWVRQPPGRGLEWIGYISYSGITTYNPSLKSRVTMLRDTSKNQFSLRLSSVTAADTAVYYCARSLARTTAMDYWGQGSLVTVSS[human IgG1 constant region with N315S (EU numbers) omitted here]
light: B1 light
notes: copies: 2 + 2
B4: MRAH-G1d/MRAL-KT0 Q311T (antibody, human IgG1, kappa)
heavy: QVQLQESGPGLVRPSQTLSLTCTVSGYSITSDHAWSWVRQPPGRGLEWIGYISYSGITTYNPSLKSRVTMLRDTSKNQFSLRLSSVTAADTAVYYCARSLARTTAMDYWGQGSLVTVSS[human IgG1 constant region with Q311T (EU numbers) omitted here]
light: B1 light
notes: copies: 2 + 2
B5: MRAH-G1d/MRAL-KT0 N434L (antibody, human IgG1, kappa)
heavy: QVQLQESGPGLVRPSQTLSLTCTVSGYSITSDHAWSWVRQPPGRGLEWIGYISYSGITTYNPSLKSRVTMLRDTSKNQFSLRLSSVTAADTAVYYCARSLARTTAMDYWGQGSLVTVSS[human IgG1 constant region with N434L (EU numbers) omitted here]
light: B1 light
notes: copies: 2 + 2
B6: MRAH-G1d/MRAL-KT0 N434E (antibody, human IgG1, kappa)
heavy: QVQLQESGPGLVRPSQTLSLTCTVSGYSITSDHAWSWVRQPPGRGLEWIGYISYSGITTYNPSLKSRVTMLRDTSKNQFSLRLSSVTAADTAVYYCARSLARTTAMDYWGQGSLVTVSS[human IgG1 constant region with N434E (EU numbers) omitted here]
light: B1 light
notes: copies: 2 + 2
B7: MRAH-G1d/MRAL-KT0 Q311P (antibody, human IgG1, kappa)
heavy: QVQLQESGPGLVRPSQTLSLTCTVSGYSITSDHAWSWVRQPPGRGLEWIGYISYSGITTYNPSLKSRVTMLRDTSKNQFSLRLSSVTAADTAVYYCARSLARTTAMDYWGQGSLVTVSS[human IgG1 constant region with Q311P (EU numbers) omitted here]
light: B1 light
notes: copies: 2 + 2
B8: MRAH-G1d/MRAL-KT0 Q311E (antibody, human IgG1, kappa)
heavy: QVQLQESGPGLVRPSQTLSLTCTVSGYSITSDHAWSWVRQPPGRGLEWIGYISYSGITTYNPSLKSRVTMLRDTSKNQFSLRLSSVTAADTAVYYCARSLARTTAMDYWGQGSLVTVSS[human IgG1 constant region with Q311E (EU numbers) omitted here]
light: B1 light
notes: copies: 2 + 2
B9: MRAH-G1d/MRAL-KT0 N434Q (antibody, human IgG1, kappa)
heavy: QVQLQESGPGLVRPSQTLSLTCTVSGYSITSDHAWSWVRQPPGRGLEWIGYISYSGITTYNPSLKSRVTMLRDTSKNQFSLRLSSVTAADTAVYYCARSLARTTAMDYWGQGSLVTVSS[human IgG1 constant region with N434Q (EU numbers) omitted here]
light: B1 light
notes: copies: 2 + 2
B10: MRAH-G1d/MRAL-KT0 Q311N (antibody, human IgG1, kappa)
heavy: QVQLQESGPGLVRPSQTLSLTCTVSGYSITSDHAWSWVRQPPGRGLEWIGYISYSGITTYNPSLKSRVTMLRDTSKNQFSLRLSSVTAADTAVYYCARSLARTTAMDYWGQGSLVTVSS[human IgG1 constant region with Q311N (EU numbers) omitted here]
light: B1 light
notes: copies: 2 + 2
B11: MRAH-G1d/MRAL-KT0 Q311M (antibody, human IgG1, kappa)
heavy: QVQLQESGPGLVRPSQTLSLTCTVSGYSITSDHAWSWVRQPPGRGLEWIGYISYSGITTYNPSLKSRVTMLRDTSKNQFSLRLSSVTAADTAVYYCARSLARTTAMDYWGQGSLVTVSS[human IgG1 constant region with Q311M (EU numbers) omitted here]
light: B1 light
notes: copies: 2 + 2
B12: MRAH-G1d/MRAL-KT0 N434R (antibody, human IgG1, kappa)
heavy: QVQLQESGPGLVRPSQTLSLTCTVSGYSITSDHAWSWVRQPPGRGLEWIGYISYSGITTYNPSLKSRVTMLRDTSKNQFSLRLSSVTAADTAVYYCARSLARTTAMDYWGQGSLVTVSS[human IgG1 constant region with N434R (EU numbers) omitted here]
light: B1 light
notes: copies: 2 + 2
B13: MRAH-G1d/MRAL-KT0 N434T (antibody, human IgG1, kappa)
heavy: QVQLQESGPGLVRPSQTLSLTCTVSGYSITSDHAWSWVRQPPGRGLEWIGYISYSGITTYNPSLKSRVTMLRDTSKNQFSLRLSSVTAADTAVYYCARSLARTTAMDYWGQGSLVTVSS[human IgG1 constant region with N434T (EU numbers) omitted here]
light: B1 light
notes: copies: 2 + 2
B14: MRAH-G1d/MRAL-KT0 N434G (antibody, human IgG1, kappa)
heavy: QVQLQESGPGLVRPSQTLSLTCTVSGYSITSDHAWSWVRQPPGRGLEWIGYISYSGITTYNPSLKSRVTMLRDTSKNQFSLRLSSVTAADTAVYYCARSLARTTAMDYWGQGSLVTVSS[human IgG1 constant region with N434G (EU numbers) omitted here]
light: B1 light
notes: copies: 2 + 2

Biological target: T1, PRYSPRY domain of human TRIM21 with …
Test: SPR, Protein L capture

hTRIM21 binding level ratio (variant/control antibody)	Binder
1.06	B1
1.05	B2
1.18	B3
1.02	B4
1.22	B5
-0.005	B6
1.15	B7
0.486	B8
0.608	B9
0.782	B10
0.953	B11
0.399	B12
0.03	B13
0.108	B14

Biological target: T2, PRYSPRY domain of mouse TRIM21 with …
Test: SPR, Protein L capture

mTRIM21 binding level ratio (variant/control antibody)	Binder
2.81	B1
3.06	B2
2.7	B3
2.71	B4
2.18	B5
-0.117	B6
2.73	B7
1.04	B8
0.415	B9
2.64	B10
2.55	B11
-0.045	B12
-0.089	B13
0.305	B14

biological target: T3, human FcRn (human, UniProt P55899 partial chain; P61769 partial chain, limits assumed); test: SPR, Protein L capture
T3 construct: also called hFcRn

hFcRn binding level ratio (variant/control antibody)	Binder
0.76	B1
0.35	B2
0.13	B3
1.14	B4
0.12	B5
0.26	B6
0.27	B7
0.44	B8
0.98	B9
0.2	B10
1.42	B11
0.32	B12
0.66	B13
1.37	B14

Reference: US20210238308A1 (Chugai, published 2021)
